Here are results for 32 compounds from ChEMBL document CHEMBL1201862, “PubChem BioAssay data set” (2004).

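Grown in 96-well plates, cells were treated for 48 hours with each compound at five concentrations. Insufficient inhibition: endpoint recorded as highest concentration tested. The concentration for 50% growth inhibition is given as GI50.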 Activity calls are given as the source filed them. No stated cut-off is given here; in the data, active = GI50 up to about 1.1 µM and inactive = higher. Some results are limits rather than exact numbers.

The test relates to NCI-H322M. In words: NCI anticancer screen, dose series, 48 h.
On to `CCCSc1nc(COC(=O)NC)c(COC(=O)NC)n1C`, for which the GI50 was inactive: > 100 µM.
With `O=[N+]([O-])c1ccc2[nH]c(-c3ccc(Cl)cc3)nc2c1` the figure was inactive: 28.9 µM; with `O=C(O)C(Cc1ccccc1)Cc1ccccc1`, inactive: > 100 µM.
With `CC1=NN(c2nc(N)nc(C(C#N)C(=O)c3cc4c(cc3Cl)Sc3nccn3S4(=O)=O)n2)C(C)(C)C1` (configuration not stated) the figure was inactive: 24 µM.
With `CSC(=O)c1sc(SC)[n+](-c2ccccc2)c1O` the figure was inactive: 17.1 µM; with `COC(=O)c1c(C)oc2ccc(OC(C)=O)cc12`, inactive: > 100 µM.
Take `Cc1ccc2c(c1)-c1c(C#N)c(N)nc(-c3ccccc3)c1CCS2(=O)=O`: the GI50 is inactive: 13.6 µM.
With `CCN(CC)CCOCCOCC1(c2ccc(Cl)c(Cl)c2)CCCCC1` the figure was inactive: 13.4 µM.
Turning to `Cc1c(CNc2ccc(Cl)c(Cl)c2Cl)cnc2nc(N)nc(N)c12`, the GI50 was inactive: 3.11 µM.
In the case of `CN(C)c1ccc(/C=C(\C#N)C(N)=C(C#N)C#N)cc1` it was inactive: > 100 µM; in that of `O=[N+]([O-])c1ccc2nc3c(nc2c1)-c1c2ccccc2cc2cccc-3c12`, inactive: 69.3 µM.
In the case of `O=C1CCCN1CCC/N=c1/cc2n(-c3ccc(Cl)cc3)c3ccccc3nc-2cc1Nc1ccc(Cl)cc1` it was inactive: 20.2 µM; in that of `CCCCCCCCSC1=C(Cl)C(=O)C(OC)=C(OC)C1=O`, inactive: 16.6 µM; in that of `CCOC(=O)c1c(-c2ccccc2)oc(=O)c(Cc2cccc3cccnc23)c1-c1ccccc1`, inactive: > 10 µM.
In the case of `C/C(=N\NC(=S)N1CCN(C)CC1)c1nc2cccnc2[nH]1`, the GI50 was inactive: > 100 µM.
With `CN(C)/C=N/c1c2ccccc2nc2ccccc12` the figure was inactive: 6.55 µM; with `CCOCc1cc(=O)c2c(O)cc3c(c2o1)CCC(C)(C)O3`, inactive: > 100 µM; with `COc1cc(/C=C2\C(=O)N(c3cccc([N+](=O)[O-])c3)C(c3ccccc3)S2(=O)=O)cc(OC)c1OC` (configuration not stated), inactive: > 100 µM.
Take `O=C(Nc1cc(Cl)ccc1Cl)c1cc2ccccc2oc1=O`: the GI50 was inactive: > 100 µM.
With `C[C@H](C(O)CC(=O)C(C)(C)O)[C@H]1CC[C@@]2(C)[C@@H]3CC[C@H]4C(C)(C)[C@@H](OC5OC(COC6OC(CO)C(O)C(O)C6O)C(O)C(O)C5O)CC[C@]4(C)C3=CC[C@]12C` (some centres not stated) the figure was inactive: > 100 µM; with `Nc1nnc(N)n1N`, inactive: > 100 µM.
In the case of `COC(=O)C(C(=O)C(=O)Nc1ccc([N+](=O)[O-])cc1[N+](=O)[O-])c1nc2ccc(Cl)cc2nc1O` (configuration not stated) it was inactive: > 100 µM; in that of `O=C(OCC(OC(=O)c1ccccc1)C1CC(C(O)C2CCCCC2)C(=O)O1)c1ccccc1` (configuration not stated), inactive: > 100 µM.
Take `C=C1CC(COc2ccc3c(C)cc(=O)oc3c2)(c2ccccc2)OC1=O` (configuration not stated): the GI50 is inactive: 11.5 µM.
For the compound `Clc1ccc(NCc2nnc(COc3ccc(OCc4nnc(CNc5ccc(Cl)cc5)o4)c(Cl)c3)o2)cc1`, the GI50 is inactive: 51.4 µM.
For `O=C(c1nc2ccccc2nc1O)C(O)c1ccccc1` (configuration not stated), the GI50 was inactive: > 100 µM.
With `O=C1/C(=C/c2ccc(O)cc2)CCCC1CN1CCCCC1` (configuration not stated) the figure was inactive: 17.3 µM; with `O=C1c2ccccc2C(=O)N1n1c(Cc2ccccc2)n[nH]c1=O`, inactive: > 100 µM; with `COc1cc(N(CCC#N)CCC#N)ccc1C(/N=N/c1cccc(C)c1)=N\NC(=O)c1ccc(C)cc1`, inactive: > 100 µM.
For `CC(=O)OCCOCNC(=S)N/N=C(\C)c1ccco1`, the GI50 was inactive: > 100 µM.
For the compound `OC1(c2ccc(Cl)cc2)c2ccccc2C2=NCc3ccccc3CN21` (configuration not stated), the GI50 is inactive: 8.24 µM.
`Cc1ncc([N+](=O)[O-])n1CCN(C)CCCCn1ccnc1[N+](=O)[O-]`: the GI50 is inactive: > 100 µM.
